Reference: the supplement of paper PMC12217912
This is one part of the list. Sequences were assembled here from the parent chain. Inactive controls read about 0.05.

B1: TEV protease; numbered along this chain (parent)
chain: MGESLFKGPRDYNPISSSICHLTNESDGHTTSLYGIGFGPFIITNKHLFRRNNGTLVVQSLHGVFKVKDTTTLQQHLVDGRDMIIIRMPKDFPPFPQKLKFREPQREERICLVTTNFQTKSMSSMVSDTSCTFPSGDGIFWKHWIQTKDGQCGSPLVSTRDGFIVGIHSASNFTNTNNYFTSVPKNFMELLTNQEAQQWVSGWRLNADSVLWGGHKVFMVKPEEPFQPVKEATQL

Variants of: B1
Assay: raw area under fraction-flipped curve 0-4 h after induction (AUC4h, not background-subtracted), DNA-recorder readout of cleavage of the substrate (dimensionless); higher = more cleavage of the substrate by the protease variant
Settings: temperature: 34 °C; time window: 0-4 h after rhamnose induction
Experimental: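 In vivo DNA recorder in E. coli TOP10(DE3) ΔrhaA at 34 °C. Each TEVp single-site mutant (parent TEVp 0) is paired with a single-site variant of the 7-mer TEVs (canonical ENLYFQ|S). The substrate sits between flexible linkers in a Bxb1-sfGFP-TEVs-SsrA fusion, so cleavage stabilises Bxb1 and speeds flipping of a recombination array, read by NGS. The value is the raw area under the fraction-flipped curve over 0-4 h after rhamnose induction (AUC4h), with ≥20 reads per time point. It is not background-subtracted; inactive controls average about 0.047.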
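Also: Bxb1 expression induced with 0.2% (w/v) L-rhamnose at OD600 near 0.5, cultures sampled hourly, flipped fraction per protease–substrate barcode pair counted by paired-end Illumina sequencing.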

Variant	area with substrate EALYFQS	area with substrate ECLYFQS	area with substrate EDLYFQS	area with substrate EELYFQS	area with substrate EFLYFQS	area with substrate EGLYFQS	area with substrate EILYFQS	area with substrate EKLYFQS	area with substrate ELLYFQS	area with substrate EMLYFQS	area with substrate EPLYFQS	area with substrate EQLYFQS	area with substrate ERLYFQS	area with substrate ESLYFQS	area with substrate ETLYFQS	area with substrate EVLYFQS	area with substrate EWLYFQS	area with substrate EYLYFQS	area with substrate EHLYFQS
MGESLFKGPRDYNPISSSICPLTNESDGHTTSLYGIGFGPFIITNKHLFRRNNGTLVVQSLHGVFKVKDTTTLQQHLVDGRDMIIIRMPKDFPPFPQKLKFREPQREERICLVTTNFQTKSMSSMVSDTSCTFPSGDGIFWKHWIQTKDGQCGSPLVSTRDGFIVGIHSASNFTNTNNYFTSVPKNFMELLTNQEAQQWVSGWRLNADSVLWGGHKVFMVKPEEPFQPVKEATQL [H21P]	0.0555	0.0416	0.0518	0.0711	0.0602	0.0627	0.0521	0.0526	0.0552	0.0447	0.0561	0.0645	0.0462	0.0569	0.0424	0.0489	0.0505	0.0542	–
MGESLFKGPRDYNPISSSICHLTNESDGHTTSLYGIGFGPFIITNKHLFRRNNGTLVVQSLHGVFKVKDTTTLQQHLVDGRDMIIIRMPKDFPPFPQKLKFREPQREERICLVTTNFQTKSMSSMVSDTSCTFPSGDGIFWKHWIQTKDGQCGSPLVSTRDGFIVGIHSASNFTNTNNYFTSVPKNFMELLTNQEAQQWVSGWRLNADSVLWGGHFVFMVKPEEPFQPVKEATQL [K216F]	0.0881	–	0.09	0.0843	–	–	0.0628	0.0972	0.0937	0.0963	–	0.0977	0.0876	0.0893	–	–	–	–	–
MGESLFKGPRDYNPISSSICHLTNESDGHTTSLYGIGFGPFIITNKHLFRRNNGTLVVQSLHGVFKVKDTTTLQQHLVDGRDMIIIRMPKDFPPFPQKLKFREPQREERICLVTTNFQTKSMSSMVSDTSCTFPSGDGIFWKHWIQTKDGQCGSPLVSTIDGFIVGIHSASNFTNTNNYFTSVPKNFMELLTNQEAQQWVSGWRLNADSVLWGGHKVFMVKPEEPFQPVKEATQL [R160I]	0.114	0.0925	0.117	0.131	0.107	0.0812	0.0802	0.104	–	0.112	–	0.101	0.0903	0.102	0.108	0.0892	0.0962	–	–
MGESLFKGPRDYNPISSSICHLTNESDGHTTSLYGIGFGPFIITNKHLFRRNNGTLVVQSLHGVFKVKDTTTLQQHLVDGRDMIIIRMPKDFPPFPQKLKFREPQREERICLVTTNFQTKSMSSMVSDTSCTFPSGDGIFWKHWIQTKDGQCGSPLVSTNDGFIVGIHSASNFTNTNNYFTSVPKNFMELLTNQEAQQWVSGWRLNADSVLWGGHKVFMVKPEEPFQPVKEATQL [R160N]	0.141	0.116	–	–	–	0.127	–	0.125	0.13	0.131	–	0.154	–	0.101	0.105	–	0.111	–	–
MGESLFKGPRDYNPISSSICHLTNESDGHTTSLYGIGFGPFIITNKHLFRRNNGTLVVQSLHGVFKVKDTTTLQQHLVDGRDMIIIRMPKDFPPFPQKLKFREPQREERICLVTTNFQTKSMSSMVSDTSCTFPSGDGIFWKHWIQTKDGQCGSPLVSTRDGFIVGIYSASNFTNTNNYFTSVPKNFMELLTNQEAQQWVSGWRLNADSVLWGGHKVFMVKPEEPFQPVKEATQL [H168Y]	0.0529	0.0607	–	0.0601	0.0751	0.0829	0.0586	0.0537	0.057	–	0.0642	–	0.0462	0.0632	0.0562	0.0481	–	0.077	0.0378
MGESLFKGPRDYNPISSSICHLTNESDGHTTSLYGIGFGGFIITNKHLFRRNNGTLVVQSLHGVFKVKDTTTLQQHLVDGRDMIIIRMPKDFPPFPQKLKFREPQREERICLVTTNFQTKSMSSMVSDTSCTFPSGDGIFWKHWIQTKDGQCGSPLVSTRDGFIVGIHSASNFTNTNNYFTSVPKNFMELLTNQEAQQWVSGWRLNADSVLWGGHKVFMVKPEEPFQPVKEATQL [P40G]	0.127	0.102	0.138	0.0986	–	–	0.109	0.116	–	–	0.0895	0.116	0.118	0.109	–	0.103	0.106	0.119	–
MGESLFKGPRDYNPISSSICHLTNESDGHTTSLYGIGFAPFIITNKHLFRRNNGTLVVQSLHGVFKVKDTTTLQQHLVDGRDMIIIRMPKDFPPFPQKLKFREPQREERICLVTTNFQTKSMSSMVSDTSCTFPSGDGIFWKHWIQTKDGQCGSPLVSTRDGFIVGIHSASNFTNTNNYFTSVPKNFMELLTNQEAQQWVSGWRLNADSVLWGGHKVFMVKPEEPFQPVKEATQL [G39A]	0.0516	0.0457	0.0506	0.0529	0.0611	0.0445	0.0493	0.0594	–	0.0376	0.0569	0.0496	–	0.0477	–	0.0429	0.0461	–	0.0472
MGESLFKGPRDYNPISSSICHLTNESDGHTTSLYGIGFGPFIITNKHLFRRNNGTYVVQSLHGVFKVKDTTTLQQHLVDGRDMIIIRMPKDFPPFPQKLKFREPQREERICLVTTNFQTKSMSSMVSDTSCTFPSGDGIFWKHWIQTKDGQCGSPLVSTRDGFIVGIHSASNFTNTNNYFTSVPKNFMELLTNQEAQQWVSGWRLNADSVLWGGHKVFMVKPEEPFQPVKEATQL [L56Y]	0.066	0.0761	0.0562	–	–	–	–	0.0676	0.0586	0.051	–	–	–	0.0516	–	0.0383	0.0524	–	–
MGESLFKGPKDYNPISSSICHLTNESDGHTTSLYGIGFGPFIITNKHLFRRNNGTLVVQSLHGVFKVKDTTTLQQHLVDGRDMIIIRMPKDFPPFPQKLKFREPQREERICLVTTNFQTKSMSSMVSDTSCTFPSGDGIFWKHWIQTKDGQCGSPLVSTRDGFIVGIHSASNFTNTNNYFTSVPKNFMELLTNQEAQQWVSGWRLNADSVLWGGHKVFMVKPEEPFQPVKEATQL [R10K]	0.109	0.104	0.114	0.0904	0.0731	0.0899	0.0797	0.0641	0.104	0.0839	–	0.104	0.0729	0.102	0.0907	0.0985	0.0904	–	0.102
